Measurements from PubChem BioAssay AID488969 (Vanderbilt High Throughput Screening Facility, 2010).
The full ranking holds about 110,000 compounds; the median of “z-score” is about -0.1, and the highest 2% start at about 2. Some of the results follow. Active and inactive are the calls of the source.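 Rule for the calls: active = z-score in the third read window above 3 or below -3; inactive = the rest.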

Each molecule was assayed against Metabotropic glutamate receptor 8 (Rattus norvegicus) (UniProt P70579) (assay: rat mGluR8 modulators via GIRK flux, primary screen, cell-based, thallium flux, HTS (AID 488969)). Settings: HEK293 rat mGluR8, GIRK (G protein-gated inwardly rectifying potassium channel) thallium flux, FluoZin2; at 10 µM; stronger effect = higher value; submaximal glutamate (EC20) added with thallium.
Sequence of UniProt P70579 (P70579 whole entry, looked up): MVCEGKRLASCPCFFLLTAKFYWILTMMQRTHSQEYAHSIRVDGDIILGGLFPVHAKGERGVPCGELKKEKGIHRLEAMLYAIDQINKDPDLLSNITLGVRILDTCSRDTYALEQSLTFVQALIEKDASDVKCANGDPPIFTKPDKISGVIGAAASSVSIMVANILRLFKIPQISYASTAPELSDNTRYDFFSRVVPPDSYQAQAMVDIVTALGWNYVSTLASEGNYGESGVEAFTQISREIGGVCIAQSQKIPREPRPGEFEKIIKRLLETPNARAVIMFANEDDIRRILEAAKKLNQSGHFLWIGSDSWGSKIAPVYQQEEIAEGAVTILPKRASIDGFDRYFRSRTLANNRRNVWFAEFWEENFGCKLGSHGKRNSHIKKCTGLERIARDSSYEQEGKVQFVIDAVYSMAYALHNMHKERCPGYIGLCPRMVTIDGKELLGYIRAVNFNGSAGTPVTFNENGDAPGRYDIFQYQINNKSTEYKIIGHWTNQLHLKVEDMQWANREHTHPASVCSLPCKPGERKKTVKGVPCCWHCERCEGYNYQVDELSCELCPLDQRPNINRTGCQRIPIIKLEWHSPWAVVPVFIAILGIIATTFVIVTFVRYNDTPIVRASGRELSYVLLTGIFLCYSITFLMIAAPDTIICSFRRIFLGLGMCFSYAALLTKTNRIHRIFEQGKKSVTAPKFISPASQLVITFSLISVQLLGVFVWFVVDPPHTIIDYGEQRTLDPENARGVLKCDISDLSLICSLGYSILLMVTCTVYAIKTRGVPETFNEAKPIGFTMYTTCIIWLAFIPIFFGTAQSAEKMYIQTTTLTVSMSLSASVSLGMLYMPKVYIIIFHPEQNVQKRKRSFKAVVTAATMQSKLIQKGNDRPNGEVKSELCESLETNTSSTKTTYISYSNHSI
With `NC(=O)c1ccsc1NC(=O)c1cccs1` the z-score was -0.0367.
Molecule `CCN(C(=O)CSc1nnc(Cc2cccc3ccccc23)n1N)C1CCS(=O)(=O)C1` (stereo not given) has a z-score of -0.0561.
With `COc1ccc(-c2cc(CCCC(=O)N3CCN(c4ccc(OC)cc4)CC3)no2)cc1` the z-score was -0.161.
`O=C(NNS(=O)(=O)c1ccccc1)c1ccncc1` was tested, and the z-score was -0.151.
In the case of `Cc1nn(S(=O)(=O)N2CCCCC2)c(C)c1Br`, the z-score is reported as -0.00999.
Molecule `Cn1cnc2c1c(=O)n(Cc1ccccc1)c(=O)n2C` has a z-score of -0.174.
Molecule `CC1(C)CC(=O)C=C(Nc2cc(-c3ccccc3)[nH]n2)C1` has a z-score of -0.115.
For `CCc1nnc(NC(=O)NCN2C(=O)C3C4C=CC(C4)C3C2=O)s1` (stereo not given), the z-score was -0.373.
Work on `CCNC(=O)O/N=C(\C)c1sc(-c2ccc(Cl)cc2)nc1C` yielded a z-score of -1.15.
Molecule `CCC(=O)NC(=S)Nc1ccc(NC(=O)COc2ccccc2)cc1` has a z-score of 0.0565.
Work on `COc1ccc(-c2nc(CS(=O)CC(=O)NCc3cccnc3)c(C)o2)cc1` (stereo not given) yielded a z-score of 0.0703.
In the case of `O=C(NCC1CCCO1)c1ccc(NC(=O)C2CC=CCC2C(=O)O)cc1` (stereo not given), the z-score is reported as -0.0849.
For `CSc1nc2ccc(NC(=O)CSc3nnc(N)s3)cc2s1`, the z-score was -0.286.
With `CC(C)=CCC/C(C)=C/C=N/NC(=O)c1ccccc1[N+](=O)[O-]` the z-score was -0.0423.
`O=C(CSc1nnc(-c2ccc3c(c2)OCO3)n1-c1ccccc1)c1ccc(Cl)cc1` was tested, and the z-score was -0.726.
In the case of `COc1cccc(NC(=O)CN(c2cccc(F)c2)S(C)(=O)=O)c1`, the z-score is reported as -0.058.
`COc1ccc(S(=O)(=O)n2nc(C)cc2C)c(C)c1C` gave a z-score of -0.246.
`Cc1onc(-c2ccccc2Cl)c1C(=O)Nc1c(C)n(C)n(-c2ccccc2)c1=O` was tested, and the z-score was 0.0475.
`CCOC(=O)N1CCC(NC(=O)c2cc(C(=O)NC3CCCC3)ccc2CO)CC1` was tested, and the z-score was -0.638.
In the case of `N#C/C(C(=O)Oc1ccccc1)=C1\C=Cc2ccccc2N1`, the z-score is reported as 0.0612.
In the case of `Cc1cccc(S(=O)(=O)NCCC(=O)OC(C)C(=O)NC(=O)NC2CCCCC2)c1` (stereo not given), the z-score is reported as -0.152.
For `N#Cc1ccccc1CN1C(=O)S/C(=C/c2cccn2-c2ccc(C(=O)O)cc2)C1=O`, the z-score was -0.6.
In the case of `COc1ccc(C2C(=O)N(C3CCCCC3)CC(=O)N2CCc2ccccc2)cc1OC` (stereo not given), the z-score is reported as -0.0366.
`Cc1nnc(SCC(=O)Nc2nccs2)[nH]c1=O` was tested, and the z-score was 0.793.
Molecule `CCOC(=O)CN1CC23C=CC(O2)C(C(=O)NC2CCCCCC2)C3C1=O` (stereo not given) has a z-score of -0.149.
With `C/C(=C\C(=O)O)C(=O)Nc1nccs1` the z-score was -0.121.
`CC(C)(CSc1ccccn1)NS(=O)(=O)c1ccc(Cl)cc1` gave a z-score of -0.164.
For `O=C(CN1CC(c2ccccc2)CC1=O)OCc1ccccc1F` (stereo not given), the z-score was -0.652.
For `Cn1c(SCc2nc3ccccc3c(=O)[nH]2)nnc1-c1ccco1`, the z-score was 0.192.
`CCCCOc1ccccc1NC(=O)C=C(C)C` was tested, and the z-score was -0.0373.
Work on `COCCn1nnnc1C(c1ccccc1OC)N1CCN(c2ccccc2F)CC1` (stereo not given) yielded a z-score of -0.175.
With `CCn1cc(C(=O)N2CCCCC2)c(=O)c2cc(S(=O)(=O)N3CCC(C)CC3)ccc21` the z-score was -0.0547.
For `COc1ccc(C(=O)NCc2nnc(SCC(=O)NCc3ccc(F)cc3)o2)cc1`, the z-score was -0.134.
`O=C(C1CCCN(Cc2ccc3c(c2)OCO3)C1)N1CCCC1` (stereo not given) showed a z-score of -0.401.
Work on `N#C/C(=C\c1ccc(Sc2ccc(Cl)cc2)o1)c1nc2ccccc2[nH]1` yielded a z-score of -0.486.
Molecule `O=C(OCC#CCSc1nc2ccccc2o1)c1cc2ccccc2o1` has a z-score of 0.656.
With `Cc1ccc(CN(Cc2cc3cc4c(cc3[nH]c2=O)OCCO4)Cc2nnnn2Cc2ccco2)cc1` the z-score was -0.0774.
With `COC(=O)c1cccc(NS(C)(=O)=O)c1C` the z-score was -0.254.
`O=C(NCC(c1cccnc1)N1CCOCC1)c1cccs1` (stereo not given) gave a z-score of 0.336.
In the case of `O=C(CSCc1ccc(Br)cc1)Nc1ccc(S(=O)(=O)N2CCCCCC2)cc1`, the z-score is reported as 0.923.
Work on `O=C(COC(=O)c1ccc2c(c1Cl)C(=O)c1ccccc1C2=O)NC1CCCCC1` yielded a z-score of -0.327.
Work on `C=CCn1c(CCNC(=O)c2cccs2)nnc1SCC(=O)c1cccc([N+](=O)[O-])c1` yielded a z-score of -0.306.
`Cc1ccnc(NC(=O)c2ccc([N+](=O)[O-])o2)c1` was tested, and the z-score was -0.0852.
For `Cc1cc(N/N=C/c2cccc(Br)c2)nc2ccccc12`, the z-score was -0.353.
Work on `CC1=C(C(=O)Nc2ccccc2)C(c2ccc(C)cc2)N=C(Nc2nc3ccccc3o2)N1` (stereo not given) yielded a z-score of -0.11.
In the case of `C(=C\CSc1ncn[nH]1)/CSc1ncn[nH]1`, the z-score is reported as -0.729.
`Cc1cccc(NC(=O)CN2C(=O)N/C(=C/c3ccc(C)o3)C2=O)c1` gave a z-score of 0.0879.
Molecule `Nc1cccc2c1C(=O)N(C(=O)c1cccc(S(=O)(=O)N3CCCC3)c1)C2=O` has a z-score of -0.274.
`COc1ccc2nc(N3C(=O)CC(Cc4cc(C)cc(C)c4)C3=O)sc2c1` (stereo not given) was tested, and the z-score was -0.0224.
Molecule `CNC(=S)N1N=C(c2ccc(Br)cc2)CC1c1ccc(Br)cc1` (stereo not given) has a z-score of -0.126.
`CCN(CC)S(=O)(=O)c1cccc(NC(=O)CN2C(=O)c3ccc([N+](=O)[O-])cc3C2=O)c1` was tested, and the z-score was -0.564.
For `CC(=O)Nc1cc2c(cc1C(=O)c1ccc(C)cc1)OCCO2`, the z-score was 0.116.
Molecule `Cc1ccc(Cn2nc(C)c(NC(=O)C3CC3)c2C)cc1` has a z-score of -0.085.
`CCOC(=O)c1ccc(NC(=O)c2cccc(S(=O)(=O)N3CCOCC3)c2)cc1` showed a z-score of 0.0703.
`Cc1cccc2cc(CN(Cc3ccco3)C(=O)c3ccncc3)c(=O)[nH]c12` was tested, and the z-score was -0.0862.
`O=C(Nc1nccs1)c1csc2c1CCCC2` was tested, and the z-score was -0.212.
In the case of `CCOC(=O)C1=C(c2ccccc2)N=c2s/c(=C\c3ccc(O)cc3)c(=O)n2C1c1cccs1` (stereo not given), the z-score is reported as -0.218.
With `COc1cc(-c2cc(C(F)(F)F)n3ncc(C(=O)O)c3n2)cc(OC)c1OC` the z-score was -0.377.
Molecule `O=C(/C=C/c1ccco1)Nc1cccc(NC(=O)/C=C/c2ccco2)n1` has a z-score of -0.427.
`Cc1cc(=O)[nH]c2cc(O)ccc12` gave a z-score of 0.343.
Work on `O=C(Cc1cn2ccsc2n1)Nc1cccc2cnccc12` yielded a z-score of -1.03.
Molecule `CCCCCCn1c(=O)c(-c2ccccc2)c(O)c2ccccc21` has a z-score of -0.524.
In the case of `O=C(O)CSc1nc(C(F)(F)F)cc(=O)n1-c1ccccc1`, the z-score is reported as 0.25.
`Cn1cc(Cl)c(C(=O)Nc2nc3ccccc3s2)n1` gave a z-score of 0.73.
In the case of `O=C(CC1Sc2ccccc2NC1=O)Nc1cccnc1` (stereo not given), the z-score is reported as 0.163.
For `O=C1C=C(Nc2ccc(O)cc2)CC(c2ccco2)C1` (stereo not given), the z-score was 0.053.
With `COc1ccc2[nH]c(=O)c(CN(C(=O)c3cccnc3)c3ccccc3OC)cc2c1` the z-score was -0.0305.
`O=C(Nc1cccc(Cl)c1Cl)C1CCN(c2ncccn2)CC1` showed a z-score of -0.442.
In the case of `FC(F)(F)c1cc(-c2ccccc2)nc(NCC2CCCO2)n1` (stereo not given), the z-score is reported as 0.426.
In the case of `O=C(CN1CCN(S(=O)(=O)c2ccccc2)CC1)Nc1ccc(N2CCOCC2)cc1`, the z-score is reported as -0.254.
Molecule `Cc1cccc(C)c1OCC(=O)NNC(=O)Nc1ccc(Cl)cc1` has a z-score of 0.0655.
For `C/C(=N\NC(N)=S)c1ccc(Cl)s1`, the z-score was 2.19.
`COC(=O)c1cc(OC)c(OC)cc1NC(=O)c1ccc(OC)c(OC)c1` was tested, and the z-score was -0.371.
In the case of `O=C(NCCN1C(=O)S/C(=C\c2ccccc2)C1=O)c1cc(S(=O)(=O)N2CCOCC2)c(Cl)cc1Cl`, the z-score is reported as -0.15.
With `CCOC(=O)c1sc(=S)n(C)c1C` the z-score was -0.209.
For `CCC(=O)NC(=S)Nc1ccc(-c2nc3ccc(C)cc3s2)cc1`, the z-score was 1.19.
`O=C(Nc1nnc(C2CCCCC2)s1)c1ccco1` showed a z-score of -0.0517.
With `COc1ccccc1C(=O)Nc1cccc(-c2cn3ccsc3n2)c1` the z-score was -0.847.
`CCOc1cc(CNC(C)C)c(Cl)cc1OCC(=O)NCCc1ccccc1` showed a z-score of 0.00454.
With `O=C1CC(=O)N(CCc2ccccc2)C(=O)N1CCc1ccccc1` the z-score was 0.000149.
`NC(=O)c1ccc(Sc2nnc(-c3cccs3)n2CC2CCCO2)c([N+](=O)[O-])c1` (stereo not given) gave a z-score of -0.212.
In the case of `Cn1c(=O)c2c(ncn2CC(=O)NCc2cccnc2)n(C)c1=O`, the z-score is reported as 0.0684.
`CS(=O)(=O)NCC(c1ccco1)N1CCN(c2ccc(F)cc2)CC1` (stereo not given) gave a z-score of 0.0131.
For `CCn1nnnc1SCC(=O)Nc1ccc(OC)cc1`, the z-score was -0.115.
Molecule `COc1nc(Nc2ccc(OC)c(Cl)c2)nc(OC)n1` has a z-score of 0.0549.
For `O=C(NC1CCCCC1)C(c1ccco1)N(Cc1cccnc1)C(=O)C1COc2ccccc2O1` (stereo not given), the z-score was -0.562.
With `Cc1ccccc1NS(=O)(=O)c1cc(C(=O)NCCSC2CCCCC2)ccc1C` the z-score was -0.0988.
`COc1ccccc1CNC(=O)C1CC(c2ccccc2[N+](=O)[O-])=NO1` (stereo not given) showed a z-score of -0.25.
Molecule `c1ccc(CSc2nnnn2-c2cccc3ccccc23)nc1` has a z-score of -0.387.
Work on `CCc1ccc(NC(=S)NC2CC3CCCC(C2)N3Cc2cccs2)cc1` (stereo not given) yielded a z-score of -0.108.
With `COc1cccc(-c2nnc(SCC(=O)Nc3cc(C)on3)n2C)c1` the z-score was -0.206.
With `COc1ccc(CNc2cc(C)ccc2C)c(OC)c1OC` the z-score was -0.333.
For `Cc1ccccc1Nc1nc(-c2sc(NC(=O)c3ccccc3)nc2C)cs1`, the z-score was -0.0216.
In the case of `COc1cc(NC(=O)c2cccs2)c(C(=O)OCC(=O)c2cc(C)n(-c3ccccc3)c2C)cc1OC`, the z-score is reported as -0.278.
`CC1CCCCC1NC(=O)C1CCN(S(=O)(=O)c2cccc3nsnc23)CC1` (stereo not given) showed a z-score of -0.0938.
`C=CCNC(=O)c1onc(CSc2cccc(Cl)c2)c1C(=O)O` showed a z-score of -0.371.
`Cc1c(C(=O)OC(C)C)nnn1-c1nonc1N` gave a z-score of -0.266.
In the case of `CCOc1ccc(/C=C2/C(=O)N(c3ccc(OC)cc3)C(=S)N2CC(=O)OC)cc1OCC`, the z-score is reported as 0.273.
In the case of `Oc1ccc2ccc3cccc[n+]3c2c1`, the z-score is reported as active: -3.28.
Molecule `CCOc1cc(NC(=S)NCCCN(C)C)c(OCC)cc1NC(=O)c1cccs1` has a z-score of -0.195.
With `CCOc1ccc(CN(C)CC(=O)c2c(N)n(Cc3ccccc3)c(=O)n(CC)c2=O)cc1OC` the z-score was 1.15.
`Cc1ccnc(NC(=O)C2COc3ccccc3O2)c1` (stereo not given) showed a z-score of 0.344.
With `COc1cc(Cl)c(S(=O)(=O)NCc2ccccn2)cc1Cl` the z-score was 0.238.
For `CCOC(=O)c1c(C)nc2ccccc2c1-c1ccccc1`, the z-score was -1.86.
Work on `N#CCSc1nccc(-c2cc(Cl)sc2Cl)n1` yielded a z-score of -0.121.
`COc1ccc(C2CC(c3cccs3)=NN2S(=O)(=O)c2ccc(C)cc2)cc1` (stereo not given) gave a z-score of -0.319.
With `COCCNC(=O)c1ccc(CN2CCOCC2)cc1` the z-score was 0.145.
For `COc1ccc(S(=O)(=O)N2CCCC(C(=O)NCc3ccncc3)C2)cc1Cl` (stereo not given), the z-score was -0.47.
`COc1cccc(NC(=S)N2CCN(c3ccccn3)CC2)c1` gave a z-score of -0.0488.
`CCCCN(C(=O)CSc1nnc2ccccn12)c1c(N)n(Cc2ccccc2)c(=O)[nH]c1=O` was tested, and the z-score was 0.133.
